# Measured values published in the supplement of paper PMC8728848.
# Some of the results follow.
# B1: Gal 9 (Canis lupus) (protein)
# chain: MAFSSSQPPYLSPGVPFSGKIQGGLQDGLKITINGTILYCNGTRFAVNFHSGHSDSDIAFHFNPRFEEGGYVVCNTKQKGSWGSEERKMQMPFQMGNPFELCFMVNSCDFKVTVNGSHFTQYSHRVPFHYVDTLSITGAVQLSYISFQSPGVWQSSSAPITQTVIHTVQTTPGQPFPNPIIPPTAYPTPTYPMPFFTSIPGGLYPSKSIIVSGTVLPGAKRFHINLRSGNDIAFHLNPRFNENTVVRNMQINNSWGSEERSLPRKMPFVQGQSFSVWIMCEGHCFKVAVDGEHLFEYYHRLKNLLAINNMEVAGDVQLTHVQT
# Key:
# Test in all cases: glycan array binding signal (z-score within array); higher = stronger binding
# Settings in all cases: glycan notation: IUPAC condensed, linker removed
# [1] = target: Neu5Ac(a2-3)[GalNAc(b1-4)]Gal(b1-4)Glc
# Outline: (§1)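 Glycan array binding is given as a within-array Z-score, which can be read as non-binding when negative. The arrays, 3228 of them, came from the Consortium for Functional Glycomics database and were retained only where the protein sequence was available. Z-scores were averaged across arrays of the same protein sequence at different concentrations or buffers and across linkers.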
# [2] = target: Neu5Ac(a2-3)[GalNAc(b1-4)]Gal(b1-4)GlcNAc
# Outline: as §1
# [3] = target: Neu5Ac(a2-3)[GalNAc(b1-4)]Gal(b1-4)GlcNAc(b1-3)GalNAc
# Outline: as §1
# [4] = target: Neu5Ac(a2-3)[Neu5Ac(a2-6)]GalNAc
# Outline: as §1
# Neu5Ac(a2-6)Gal = target: Neu5Ac(a2-6)Gal
# Outline: as §1
# [5] = target: Neu5Ac(a2-6)Gal(b1-3)GlcNAc(b1-3)[Gal(b1-4)GlcNAc(b1-6)]Gal(b1-4)Glc
# Outline: as §1
# Neu5Ac(a2-6)Gal(b1-4)Glc = target: Neu5Ac(a2-6)Gal(b1-4)Glc
# Outline: as §1
# [6] = target: Neu5Ac(a2-6)Gal(b1-4)GlcNAc
# Outline: as §1
# [7] = target: Neu5Ac(a2-6)Gal(b1-4)GlcNAc(b1-2)Man(a1-3)Man(b1-4)GlcNAc(b1-4)GlcNAc
# Outline: as §1
# [8] = target: Neu5Ac(a2-6)Gal(b1-4)GlcNAc(b1-2)Man(a1-3)[Gal(b1-4)GlcNAc(b1-2)Man(a1-6)]Man(b1-4)GlcNAc(b1-4)GlcNAc
# Outline: as §1
# [9] = target: Neu5Ac(a2-6)Gal(b1-4)GlcNAc(b1-2)Man(a1-3)[GlcNAc(b1-2)Man(a1-6)]Man(b1-4)GlcNAc(b1-4)GlcNAc
# Outline: as §1
# [10] = target: Neu5Ac(a2-6)Gal(b1-4)GlcNAc(b1-2)Man(a1-3)[GlcNAc(b1-2)Man(b1-4)GlcNAc(b1-2)Man(a1-6)]Man(b1-4)GlcNAc(b1-4)GlcNAc
# Outline: as §1
# [11] = target: Neu5Ac(a2-6)Gal(b1-4)GlcNAc(b1-2)Man(a1-3)[Man(a1-6)]Man(b1-4)GlcNAc(b1-4)GlcNAc
# Outline: as §1
# [12] = target: Neu5Ac(a2-6)Gal(b1-4)GlcNAc(b1-2)Man(a1-3)[Neu5Ac(a2-6)Gal(b1-4)GlcNAc(b1-2)Man(a1-6)]Man(b1-4)GlcNAc(b1-4)GlcNAc
# Outline: as §1
# [13] = target: Neu5Ac(a2-6)Gal(b1-4)GlcNAc(b1-2)Man(a1-6)Man(b1-4)GlcNAc(b1-4)GlcNAc
# Outline: as §1
# [14] = target: Neu5Ac(a2-6)Gal(b1-4)GlcNAc(b1-2)Man(a1-6)[Gal(b1-4)GlcNAc(b1-2)Man(a1-3)]Man(b1-4)GlcNAc(b1-4)GlcNAc
# Outline: as §1
# [15] = target: Neu5Ac(a2-6)Gal(b1-4)GlcNAc(b1-2)Man(a1-6)[GlcNAc(b1-2)Man(a1-3)]Man(b1-4)GlcNAc(b1-4)GlcNAc
# Outline: as §1
# [16] = target: Neu5Ac(a2-6)Gal(b1-4)GlcNAc(b1-2)Man(a1-6)[Man(a1-3)]Man(b1-4)GlcNAc(b1-4)GlcNAc
# Outline: as §1
# [17] = target: Neu5Ac(a2-6)Gal(b1-4)GlcNAc(b1-3)Gal(b1-3)GlcNAc
# Outline: as §1
# [18] = target: Neu5Ac(a2-6)Gal(b1-4)GlcNAc(b1-3)Gal(b1-4)GlcNAc
# Outline: as §1
# [19] = target: Neu5Ac(a2-6)Gal(b1-4)GlcNAc(b1-3)Gal(b1-4)GlcNAc(b1-3)Gal(b1-4)GlcNAc
# Outline: as §1
# [20] = target: Neu5Ac(a2-6)Gal(b1-4)GlcNAc(b1-3)Gal(b1-4)[Fuc(a1-3)]GlcNAc(b1-3)Gal(b1-4)[Fuc(a1-3)]GlcNAc
# Outline: as §1
# [21] = target: Neu5Ac(a2-6)Gal(b1-4)GlcNAc(b1-3)GalNAc
# Outline: as §1
# [22] = target: Neu5Ac(a2-6)Gal(b1-4)GlcNAc6S
# Outline: as §1
# Neu5Ac(a2-6)GalNAc = target: Neu5Ac(a2-6)GalNAc
# Outline: as §1
# [23] = target: Neu5Ac(a2-6)GalNAc(b1-4)GlcNAc
# Outline: as §1
# [24] = target: Neu5Ac(a2-6)GlcNAc(b1-4)GlcNAc
# Outline: as §1
# [25] = target: Neu5Ac(a2-6)GlcNAc(b1-4)GlcNAc(b1-4)GlcNAc
# Outline: as §1
# Neu5Ac(a2-8)Neu5Ac = target: Neu5Ac(a2-8)Neu5Ac
# Outline: as §1
# [26] = target: Neu5Ac(a2-8)Neu5Ac(a2-3)Gal(b1-3)GalNAc(b1-4)[Neu5Ac(a2-8)Neu5Ac(a2-3)]Gal(b1-4)Glc
# Outline: as §1
# [27] = target: Neu5Ac(a2-8)Neu5Ac(a2-3)Gal(b1-4)Glc
# Outline: as §1
# [28] = target: Neu5Ac(a2-8)Neu5Ac(a2-3)[Gal(b1-3)GalNAc(b1-4)]Gal(b1-4)Glc
# Outline: as §1
# [29] = target: Neu5Ac(a2-8)Neu5Ac(a2-3)[GalNAc(b1-4)]Gal(b1-4)Glc
# Outline: as §1
# [30] = target: Neu5Ac(a2-8)Neu5Ac(a2-8)Neu5Ac
# Outline: as §1
# [31] = target: Neu5Ac(a2-8)Neu5Ac(a2-8)Neu5Ac(a2-3)Gal(b1-4)Glc
# Outline: as §1
# [32] = target: Neu5Ac(a2-8)Neu5Ac(a2-8)Neu5Ac(a2-3)[GalNAc(b1-4)]Gal(b1-4)Glc
# Outline: as §1
# [33] = target: Neu5Ac(a2-8)Neu5Ac(a2-8)Neu5Ac(a2-8)Neu5Ac(a2-3)[GalNAc(b1-4)]Gal(b1-4)Glc
# Outline: as §1
# [34] = target: Neu5Ac(b2-6)Gal(b1-4)GlcNAc
# Outline: as §1
# Neu5Ac(b2-6)GalNAc = target: Neu5Ac(b2-6)GalNAc
# Outline: as §1
# [35] = target: Neu5Ac9Ac(a2-3)Gal(b1-3)GlcNAc
# Outline: as §1
# [36] = target: Neu5Ac9Ac(a2-3)Gal(b1-4)GlcNAc
# Outline: as §1
# [37] = target: Neu5Ac9Ac(a2-6)Gal(b1-4)GlcNAc
# Outline: as §1
# [38] = target: Neu5Gc(a2-3)Gal(b1-3)GlcNAc
# Outline: as §1
# [39] = target: Neu5Gc(a2-3)Gal(b1-3)[Fuc(a1-4)]GlcNAc
# Outline: as §1
# Neu5Gc(a2-3)Gal(b1-4)Glc = target: Neu5Gc(a2-3)Gal(b1-4)Glc
# Outline: as §1
# [40] = target: Neu5Gc(a2-3)Gal(b1-4)GlcNAc
# Outline: as §1
# [41] = target: Neu5Gc(a2-3)Gal(b1-4)[Fuc(a1-3)]GlcNAc
# Outline: as §1
# [42] = target: Neu5Gc(a2-6)Gal(b1-4)GlcNAc
# Outline: as §1
# Neu5Gc(a2-6)GalNAc = target: Neu5Gc(a2-6)GalNAc
# Outline: as §1
# [43] = target: Neu5Gc(b2-6)Gal(b1-4)GlcNAc
# Outline: as §1
binder,measurement,setting,value
B1,glycan array binding signal (z-score),[1],-0.294
same,glycan array binding signal (z-score),[2],-0.336
same,glycan array binding signal (z-score),[3],-0.303
same,glycan array binding signal (z-score),[4],-0.343
same,glycan array binding signal (z-score),Neu5Ac(a2-6)Gal,-0.342
same,glycan array binding signal (z-score),[5],-0.324
same,glycan array binding signal (z-score),Neu5Ac(a2-6)Gal(b1-4)Glc,-0.042
same,glycan array binding signal (z-score),[6],-0.334
same,glycan array binding signal (z-score),[7],-0.332
same,glycan array binding signal (z-score),[8],-0.085
same,glycan array binding signal (z-score),[9],-0.307
same,glycan array binding signal (z-score),[10],0.465
same,glycan array binding signal (z-score),[11],-0.321
same,glycan array binding signal (z-score),[12],-0.325
same,glycan array binding signal (z-score),[13],-0.298
same,glycan array binding signal (z-score),[14],0.135
same,glycan array binding signal (z-score),[15],-0.321
same,glycan array binding signal (z-score),[16],-0.335
same,glycan array binding signal (z-score),[17],0.406
same,glycan array binding signal (z-score),[18],0.21
same,glycan array binding signal (z-score),[19],0.074
same,glycan array binding signal (z-score),[20],-0.327
same,glycan array binding signal (z-score),[21],-0.178
same,glycan array binding signal (z-score),[22],-0.334
same,glycan array binding signal (z-score),Neu5Ac(a2-6)GalNAc,-0.329
same,glycan array binding signal (z-score),[23],-0.345
same,glycan array binding signal (z-score),[24],-0.346
same,glycan array binding signal (z-score),[25],-0.335
same,glycan array binding signal (z-score),Neu5Ac(a2-8)Neu5Ac,-0.316
same,glycan array binding signal (z-score),[26],-0.045
same,glycan array binding signal (z-score),[27],0.37
same,glycan array binding signal (z-score),[28],-0.302
same,glycan array binding signal (z-score),[29],-0.355
same,glycan array binding signal (z-score),[30],-0.327
same,glycan array binding signal (z-score),[31],0.318
same,glycan array binding signal (z-score),[32],-0.334
same,glycan array binding signal (z-score),[33],-0.331
same,glycan array binding signal (z-score),[34],-0.331
same,glycan array binding signal (z-score),Neu5Ac(b2-6)GalNAc,-0.34
same,glycan array binding signal (z-score),[35],0.256
same,glycan array binding signal (z-score),[36],0.477
same,glycan array binding signal (z-score),[37],-0.358
same,glycan array binding signal (z-score),[38],0.216
same,glycan array binding signal (z-score),[39],-0.122
same,glycan array binding signal (z-score),Neu5Gc(a2-3)Gal(b1-4)Glc,-0.037
same,glycan array binding signal (z-score),[40],0.045
same,glycan array binding signal (z-score),[41],-0.325
same,glycan array binding signal (z-score),[42],-0.351
same,glycan array binding signal (z-score),Neu5Gc(a2-6)GalNAc,-0.354
same,glycan array binding signal (z-score),[43],-0.335
